Among the data in the supplement of paper PMC10126150 are switch fluorescence ratio values, retold here.

Values marked as one replicate rest on one cluster of the flow cell; about a third of the high ones do not repeat.
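Further: ATP exposure 15 min at 22 °C before imaging.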

The test system of the data set is ATP. Description: switch fluorescence ratio, 500 uM ATP over buffer (Cy3 cluster intensity, sum of 5 cycles each) (fold (ratio)); higher = stronger signal-on switching upon ATP binding; sequences stand for … in TCGTCGGCAGCGTCAGATGTGTATAAGAGACAGTTTTTTTTTTTTTTTTTTTTTTTTT…TC. The following applies: aptamer strand: ATP DNA aptamer (quencher-CACCTGGGGGAGTATTGCGGAGGAAGG + anchor), 100 nM annealed; ATP concentration: 500 uM; one replicate. The gist of the method: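 After annealing to 100 nM quencher-labelled ATP aptamer, Cy3-labelled switching-strand clusters on a modified Illumina MiSeq flow-cell were imaged in selection buffer. A second image followed after 15 min with 500 uM ATP at 22 °C, and five such buffer/ATP cycles were done, each separated by NaOH stripping and re-annealing. The fluorescence ratio, averaged per switch-domain sequence, is summed target-cycle over summed buffer-cycle Cy3 intensity per cluster, with clusters outside 100-1000 RFU excluded.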
With TTGGTGTAGG, the switch fluorescence ratio was 1.01.

On to AATATTTACT, for which the switch fluorescence ratio is 1.16.

In the case of CGGTAGGATA, the switch fluorescence ratio was 0.98.

For TTGGAGCAGC, the switch fluorescence ratio is 1.99.

Turning to GGGGCTTAAC, the switch fluorescence ratio stood at 1.01.

As for AACAACGAGG, the switch fluorescence ratio is 0.989.

Regarding CACATTTGTA, the switch fluorescence ratio came out at 0.956.

TTCGGGGTAC: the switch fluorescence ratio was found to be 2.38.

CCTATACGTC: the switch fluorescence ratio is 1.11.

Take CTGGGTAGTT: the switch fluorescence ratio amounted to 0.997.

For the sequence GTAAATCCTA, the switch fluorescence ratio came out at 1.03.

As for CCTCGGTCCT, the switch fluorescence ratio stood at 1.3.

For TTCATTGTTC, the switch fluorescence ratio worked out at 0.964.

TTGAAAAACC: the switch fluorescence ratio worked out at 1.03.

Take ACAACTGACG: the switch fluorescence ratio stood at 1.11.

On to AATAGGCTC, for which the switch fluorescence ratio was found to be 1.05.

Consider GGTATTGTTA, for which the switch fluorescence ratio is 1.

Turning to AGACAGAGCG, the switch fluorescence ratio turned out to be 1.03.

In the case of CATGGTGGAC, the switch fluorescence ratio came to 0.958.

Turning to GGGCGGGAAA, the switch fluorescence ratio was found to be 1.03.

TGGATAGACG: the switch fluorescence ratio is 0.897.

CCGTTCAAT: the switch fluorescence ratio was determined as 3.99.

As to TGTATCCCAA, the switch fluorescence ratio was 1.13.

On to GCAAAGACTT, for which the switch fluorescence ratio was determined as 1.15.

On to AAGGCGGTTT, for which the switch fluorescence ratio was 1.01.

For AAGAATGTTT, the switch fluorescence ratio worked out at 0.986.

Take TATGTATGTA: the switch fluorescence ratio is 0.992.

Take ACCACGCTTC: the switch fluorescence ratio came to 1.34.

AGGCCACCCG: the switch fluorescence ratio amounted to 1.11.

Regarding TCAAATGAGT, the switch fluorescence ratio came to 1.

As for AACTAGTTAA, the switch fluorescence ratio is 1.01.

For the sequence GAGCCCCCGG, the switch fluorescence ratio amounted to 0.999.

On to TTAGAACCTT, for which the switch fluorescence ratio came out at 1.68.

Take GTGGGAGTCT: the switch fluorescence ratio turned out to be 1.09.

For the sequence CGAAAAGTGT, the switch fluorescence ratio turned out to be 0.935.

As to CTGCGTTAGG, the switch fluorescence ratio came to 1.04.

Regarding TACGCATT, the switch fluorescence ratio came out at 1.47.

TTCCCCGTCG: the switch fluorescence ratio was determined as 0.999.

On to CAAAAGAGGG, for which the switch fluorescence ratio came out at 1.

As for GTTAGTCGTA, the switch fluorescence ratio was 0.98.

Turning to TTTGCCTTAT, the switch fluorescence ratio was found to be 1.03.

As for AAGACAACTT, the switch fluorescence ratio was determined as 1.05.

On to AAGAGAATG, for which the switch fluorescence ratio came to 0.998.

For the sequence ATAACGTAGA, the switch fluorescence ratio amounted to 1.02.

With TCGGGTCGT, the switch fluorescence ratio came out at 0.98.

With CCGGGGAGCT, the switch fluorescence ratio was found to be 1.13.

With TAGGAGACGC, the switch fluorescence ratio came to 1.04.

TTTGAAACTT: the switch fluorescence ratio was determined as 1.05.

Take AAGTGATCT: the switch fluorescence ratio stood at 0.99.

GAGTATACTA: the switch fluorescence ratio stood at 0.991.

For the sequence CCTGTTAAGA, the switch fluorescence ratio was 1.

Regarding ATCCGATTTA, the switch fluorescence ratio was found to be 0.981.

In the case of GTCGCACGTC, the switch fluorescence ratio amounted to 0.999.

As to CCAGTAAAAG, the switch fluorescence ratio amounted to 0.987.

In the case of GCTGCCCGGC, the switch fluorescence ratio is 1.02.

Take TATAATAGGC: the switch fluorescence ratio was determined as 0.982.

AGCTGCCTTA: the switch fluorescence ratio amounted to 1.

Turning to AATATGATCT, the switch fluorescence ratio is 1.01.

As to CCGCTTATCA, the switch fluorescence ratio turned out to be 1.36.

For GGACGTTCAT, the switch fluorescence ratio stood at 1.02.

With TTCCCGTGTA, the switch fluorescence ratio turned out to be 1.02.

On to AGTCATGATG, for which the switch fluorescence ratio turned out to be 1.

For TGAACTCGTG, the switch fluorescence ratio is 0.997.

Take GGGCTTAAAC: the switch fluorescence ratio stood at 0.998.

As for TCGGGTTTAA, the switch fluorescence ratio was 0.983.

With TTACATAGGC, the switch fluorescence ratio was found to be 1.07.

Turning to CGGGAATGTA, the switch fluorescence ratio worked out at 1.01.

Regarding TACCTTCAAG, the switch fluorescence ratio worked out at 1.04.

With GGAGTTCCTA, the switch fluorescence ratio worked out at 0.994.

AATAGTGTAC: the switch fluorescence ratio turned out to be 1.11.

Take TGCGTGCGCG: the switch fluorescence ratio is 1.08.

Take TGTGCCTTTT: the switch fluorescence ratio worked out at 0.981.

Turning to GTTAGCAGTC, the switch fluorescence ratio was 1.04.

On to TAAACACTCA, for which the switch fluorescence ratio stood at 1.05.

For TGTACCTGTG, the switch fluorescence ratio was found to be 0.983.

For the sequence TTGGTTTCTG, the switch fluorescence ratio was determined as 0.977.

With TCGAGGGAAT, the switch fluorescence ratio is 1.76.

For TGATGGCTTT, the switch fluorescence ratio worked out at 1.05.

In the case of ACGGACCATA, the switch fluorescence ratio was 1.34.

In the case of CAAAGTTCAC, the switch fluorescence ratio is 1.04.

Consider CTGTCTGTCT, for which the switch fluorescence ratio was 1.02.

Consider AAGTGCGGAT, for which the switch fluorescence ratio worked out at 1.01.

Consider GTAGCATTGG, for which the switch fluorescence ratio is 1.87.

With AATTCGGTAC, the switch fluorescence ratio was 1.13.

Consider GGGTGGGTAA, for which the switch fluorescence ratio worked out at 1.

For the sequence AACGGTGT, the switch fluorescence ratio was 0.98.

Turning to GCGGTAGTGC, the switch fluorescence ratio came out at 0.968.

On to CTTTCGTTAT, for which the switch fluorescence ratio is 1.04.

AGTTGAATAC: the switch fluorescence ratio stood at 1.17.

With AGCTGGCTG, the switch fluorescence ratio came to 1.05.

Regarding ATCTTCACCG, the switch fluorescence ratio was 1.14.

Take GGCTCTGACT: the switch fluorescence ratio was determined as 0.993.

For GCTAAAAGAG, the switch fluorescence ratio turned out to be 0.992.

In the case of TTCATATTGG, the switch fluorescence ratio is 0.982.

On to GTTATACACT, for which the switch fluorescence ratio was determined as 0.959.

Take CACCTCGGGA: the switch fluorescence ratio was determined as 1.02.

Turning to TCTGCGAGGG, the switch fluorescence ratio came to 1.2.

Take GTCACTAGGT: the switch fluorescence ratio is 0.997.

TTAGTCATTG: the switch fluorescence ratio was found to be 0.925.

As to ACTCATCACC, the switch fluorescence ratio amounted to 1.14.

Take CCTCGGCGGG: the switch fluorescence ratio is 1.7.

With CACGGAAGAG, the switch fluorescence ratio is 1.04.

With GGGTATATCG, the switch fluorescence ratio worked out at 0.996.

Consider TATTGAGTAT, for which the switch fluorescence ratio was 1.

GAGGAACGTC: the switch fluorescence ratio came out at 1.

For GGGTAGTTGA, the switch fluorescence ratio amounted to 1.02.

Consider TTAGCACATC, for which the switch fluorescence ratio came out at 2.13.

Consider TAAACGGGTT, for which the switch fluorescence ratio worked out at 1.03.

Take TTGGGTCT: the switch fluorescence ratio was 1.05.

As for GCTGCAGCGA, the switch fluorescence ratio amounted to 1.01.

Turning to GCATTACT, the switch fluorescence ratio came to 2.85.

As for ATAGCCCACA, the switch fluorescence ratio came to 0.983.

As for CGTGTCCGCG, the switch fluorescence ratio turned out to be 0.997.

Regarding GGAGCTCAGA, the switch fluorescence ratio came out at 1.06.

TGGCGCACTT: the switch fluorescence ratio was 1.05.

As to ATCCAGTAGA, the switch fluorescence ratio was 1.

On to ATTTTAACCC, for which the switch fluorescence ratio is 1.05.

TTTTCAGCGC: the switch fluorescence ratio is 0.999.

For the sequence TTTAGAACAG, the switch fluorescence ratio amounted to 1.01.

Take GCCACAAGGT: the switch fluorescence ratio amounted to 1.04.
